Publication PMC4336329 (PLoS ONE, 2015)
The campaign covered roughly 310,000 compounds. About 14,000 (4.5%) showed an effect of 50% or more. Effects have a minus sign here. The list shows a part of the results.

Target: human ether-à-go-go-related gene (hERG) potassium channel (human, UniProt Q12809)
Experiment: primary screen, population patch clamp on CHO cells stably expressing hERG
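Further: peak tail current of the secondary pulse compared with the same well before compound.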

human ether-à-go-go-related gene (hERG) potassium channel, sequence (Q12809 whole entry, looked up): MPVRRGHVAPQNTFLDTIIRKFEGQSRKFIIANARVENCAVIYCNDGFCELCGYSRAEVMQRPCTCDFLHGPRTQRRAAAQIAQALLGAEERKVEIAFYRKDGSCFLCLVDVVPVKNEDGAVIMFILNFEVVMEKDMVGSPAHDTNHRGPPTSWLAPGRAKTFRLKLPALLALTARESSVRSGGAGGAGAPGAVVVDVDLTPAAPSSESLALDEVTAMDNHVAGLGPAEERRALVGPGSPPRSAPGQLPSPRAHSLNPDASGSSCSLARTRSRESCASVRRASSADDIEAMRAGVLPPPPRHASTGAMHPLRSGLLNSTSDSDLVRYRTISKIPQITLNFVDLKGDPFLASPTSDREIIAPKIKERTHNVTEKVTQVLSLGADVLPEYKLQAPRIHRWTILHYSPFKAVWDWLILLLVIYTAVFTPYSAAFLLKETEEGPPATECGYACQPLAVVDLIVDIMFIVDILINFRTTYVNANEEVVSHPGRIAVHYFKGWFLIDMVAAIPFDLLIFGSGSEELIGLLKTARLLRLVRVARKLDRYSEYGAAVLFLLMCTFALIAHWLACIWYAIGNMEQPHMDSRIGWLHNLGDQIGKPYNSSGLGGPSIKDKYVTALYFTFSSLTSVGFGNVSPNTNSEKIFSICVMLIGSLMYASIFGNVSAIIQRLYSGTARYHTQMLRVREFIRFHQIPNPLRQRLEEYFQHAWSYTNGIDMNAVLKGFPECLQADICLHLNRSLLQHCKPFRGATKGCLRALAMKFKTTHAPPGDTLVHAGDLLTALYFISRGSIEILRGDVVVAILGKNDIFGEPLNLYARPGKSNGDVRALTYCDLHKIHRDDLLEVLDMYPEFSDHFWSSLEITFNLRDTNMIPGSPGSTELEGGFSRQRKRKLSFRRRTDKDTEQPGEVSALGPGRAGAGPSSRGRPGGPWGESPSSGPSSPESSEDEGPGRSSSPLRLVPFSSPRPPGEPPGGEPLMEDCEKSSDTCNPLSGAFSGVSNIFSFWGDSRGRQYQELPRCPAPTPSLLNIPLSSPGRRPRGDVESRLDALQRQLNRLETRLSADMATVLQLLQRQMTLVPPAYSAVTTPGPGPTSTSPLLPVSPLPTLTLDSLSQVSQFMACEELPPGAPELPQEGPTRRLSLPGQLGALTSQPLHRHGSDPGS

First: Cc1cc(C)n(CCNC(=O)c2cc(COc3ccc(F)cc3Cl)on2)n1
Second: COc1cccc(-c2nn(-c3ccc(F)cc3)cc2C(=O)NCC2CCCO2)c1 (centres unmarked)
The “hERG current change (%, negative = inhibition) at 10uM” value of the first is higher: -10% for the first, -49.7% for the second.

Going from O=C(NC1CCCCCC1)c1cccs1 to O=C(NC1CCCCCC1)c1ccc(Br)o1, the “hERG current change (%, negative = inhibition) at 10uM” value falls from 3.67% to 1.18%.

First: CSc1nc(C)c(CCOC(=O)c2ccccc2)c(=O)[nH]1
Second: O=C(O)CCc1nc(-c2ccccc2Cl)no1
The “hERG current change (%, negative = inhibition) at 10uM” value of the first is lower: 1.39% for the first, 11.6% for the second.

Going from COCCn1c(=NC(=O)c2sc3ccccc3c2Cl)sc2cc(S(N)(=O)=O)ccc21 to COC(=O)c1cn(NC(=O)Cc2cccc(OC)c2)c(=O)c2ccccc12, the “hERG current change (%, negative = inhibition) at 10uM” value falls from 18.6% to 12%.

Compared with COc1cccc(Nc2nnc(SCC(=O)N3CCOCC3)s2)c1, Cn1cnnc1SCC(=O)N1CCC(Cc2ccccc2)CC1 is higher in “hERG current change (%, negative = inhibition) at 10uM” value: -11% for the first, -9.68% for the second.

Going from O=S(=O)(C=C(c1ccccc1)c1ccccc1)c1ccccc1 to O=S(=O)(/N=C(/Nc1cccc2ccccc12)c1ccccc1)c1cccs1, the “hERG current change (%, negative = inhibition) at 10uM” value rises from 2.74% to 5.15%.

Compared with CCc1cccc(NC(=O)CN(C)C2=NS(=O)(=O)c3ccccc32)c1, CCOc1ccccc1NC(=O)CCS(=O)(=O)c1cccc2nonc12 is lower in “hERG current change (%, negative = inhibition) at 10uM” value: 12.5% for the first, 0.103% for the second.

First: Cc1cc(C)c2nc(N3CCC(C(=O)N4CCCC4)CC3)sc2c1
Second: O=C(Nc1ccc(Cl)cn1)C1CCN(c2ncnc3c2nc2n3CCCCC2)CC1
The “hERG current change (%, negative = inhibition) at 10uM” value of the first is lower: -67.7% for the first, -38.8% for the second.

First: CCOC(=O)c1cc([N+](=O)[O-])c([N+](=O)[O-])cc1NC(C)=O
Second: CCOC(=O)c1cnc(SC)nc1Oc1cccc(NS(=O)(=O)c2ccc(F)cc2)c1
The “hERG current change (%, negative = inhibition) at 10uM” value of the first is higher: 5.46% for the first, -71.2% for the second.

First: COc1cccc(OCC(=O)NNC(=O)C(=O)Nc2cccc(C)c2)c1
Second: COc1cccc(OC)c1C(=O)Nc1cccc(C(=O)Nc2cccc(C(=O)O)c2)c1
The “hERG current change (%, negative = inhibition) at 10uM” value of the first is lower: 7.35% for the first, 25.5% for the second.

Compared with COc1cc(/C=N/N=C(/N)c2nonc2N)cc(Br)c1OCc1ccccc1C, Nc1nonc1C(=O)OCC(=O)c1ccc(Cl)cc1 is higher in “hERG current change (%, negative = inhibition) at 10uM” value: -0.63% for the first, 4.6% for the second.

Going from CCC1CCCCN1C(=S)NCc1ccccc1 (centres unmarked) to O=C(NCc1ccccc1)c1noc2c1CCCCC2, the “hERG current change (%, negative = inhibition) at 10uM” value falls from -1.29% to -2.31%.

Going from O=C(c1cccc(S(=O)(=O)N2CCOCC2)c1)N1CCCc2ccccc21 to CC(c1ccccc1)N(C)C(=O)CN1CCN(S(=O)(=O)c2ccc3c(c2)OCCCO3)CC1 (centres unmarked), the “hERG current change (%, negative = inhibition) at 10uM” value falls from 9.6% to -5.57%.

Going from CC1Cc2ccccc2N1S(=O)(=O)c1cnc[nH]1 (centres unmarked) to Cc1ccsc1C(=O)OCC(=O)N1CCc2ccccc2C1, the “hERG current change (%, negative = inhibition) at 10uM” value falls from 14.2% to -7.58%.

Compared with Cc1ccnc(NC(=O)CCC2CCCCC2)c1, COc1ccc(CC(=O)OCC(=O)NC(=O)NC2CCCCC2)cc1 is lower in “hERG current change (%, negative = inhibition) at 10uM” value: -3.31% for the first, -3.87% for the second.

First: C=CCSc1nsc(N)n1
Second: Cc1sc2ncnc(SCC(=O)NCC(C)C)c2c1C
The “hERG current change (%, negative = inhibition) at 10uM” value of the first is higher: 12.5% for the first, -2.52% for the second.

Going from O=C(Nc1cccc(C(=O)O)c1)/C(=C\c1ccc2c(c1)OCO2)NC(=O)c1ccc(Br)cc1 to O=C(NCc1ccncc1)/C(=C\c1ccc(F)cc1)NC(=O)c1ccccc1, the “hERG current change (%, negative = inhibition) at 10uM” value falls from 17.9% to -70.9%.

First: C[C@@H]1C=C(C(=O)NCc2nc3ccccc3[nH]2)O[C@H](OCc2ccc(CO)cc2)C1
Second: COc1ccc(Nc2ccccc2NC(=O)c2ccccc2Br)cc1
The “hERG current change (%, negative = inhibition) at 10uM” value of the first is higher: 3.27% for the first, 3.05% for the second.

Compared with CCS(=O)(=O)c1nc2ccccc2n1Cc1ccccn1, O=S(=O)(NCc1ccccc1Br)c1ccccc1Br is lower in “hERG current change (%, negative = inhibition) at 10uM” value: 3.86% for the first, -14.7% for the second.

First: CC(=O)N1CCN(c2ccccc2NC(=O)COc2cc(C)ccc2C(C)C)CC1
Second: CCc1ccccc1NC(=O)CN1CCN(C(=O)COc2ccccc2C#N)CC1
The “hERG current change (%, negative = inhibition) at 10uM” value of the first is lower: -39.2% for the first, -34.6% for the second.

Going from O=C(CNC(c1ccccc1)c1ccccc1)Nc1cc([N+](=O)[O-])ccc1Cl to O=C(N/N=C\c1ccc(-c2ccccc2[N+](=O)[O-])o1)C1COc2cc3ccccc3cc2O1 (centres unmarked), the “hERG current change (%, negative = inhibition) at 10uM” value falls from 10.7% to -2.2%.

Going from CCCCCCOC(=O)c1ccccc1NC(=O)/C=C/C(=O)O to CCCCCCNc1nc(-c2ccc(OC)cc2)c(CCC(=O)O)s1, the “hERG current change (%, negative = inhibition) at 10uM” value rises from -7.7% to 7.44%.

Going from CCOC(=O)c1c(-c2ccc(C)cc2)csc1/N=C/N(C)C to CC(=O)c1cccc(Nc2nc(-c3sc(C)nc3C)cs2)c1, the “hERG current change (%, negative = inhibition) at 10uM” value falls from 15.3% to 8.4%.

Compared with C/C(CCN1CCc2nc(-c3ccccc3)c(-c3ccccc3)cc2C1)=N\O[C@@H](C)c1cc(-c2c(C)cc(C)cc2C)no1, Cc1cc(-c2ccccc2)nc(N/N=C/c2ccc(N(C)C)cc2)n1 is lower in “hERG current change (%, negative = inhibition) at 10uM” value: 4.08% for the first, -2.14% for the second.

Compared with Cc1ccc(S(=O)(=O)N2[C@@H](c3ccc(Cl)cc3)C(C(=O)O)=CC[C@H]2c2ccc(Cl)c(Cl)c2)cc1, Cc1ccc(S(=O)(=O)N2[C@@H](c3cccc(Cl)c3)C(C(=O)O)=CC[C@H]2c2ccc(Cl)c(Cl)c2)cc1 is higher in “hERG current change (%, negative = inhibition) at 10uM” value: 11.1% for the first, 16.2% for the second.

Going from Cc1ccccc1NC(=O)CC(O)(C(F)(F)F)C(F)(F)F to Cc1ccccc1NC(=O)CSc1nnc(C2CC2)n1CC1CCCO1 (centres unmarked), the “hERG current change (%, negative = inhibition) at 10uM” value rises from -14.7% to 7.52%.

First: O=C(COc1ccc(S(=O)(=O)N2CCOCC2)cc1Cl)NC1CCCCC1
Second: O=C(COC(=O)COc1ccccc1[N+](=O)[O-])Nc1ccc(S(=O)(=O)N2CCCCC2)cc1
The “hERG current change (%, negative = inhibition) at 10uM” value of the first is lower: -19.4% for the first, 3.61% for the second.

Going from CC1(NC(=O)c2cccc(S(=O)(=O)N3CCN(c4ccc(F)cc4)CC3)c2)CCS(=O)(=O)C1 (centres unmarked) to COc1ccc(S(=O)(=O)N2CCN(CC(=O)Nc3cc(C(F)(F)F)ccc3Cl)CC2)cc1, the “hERG current change (%, negative = inhibition) at 10uM” value rises from -29.5% to -4.6%.

Going from C/C(=N/NC(=O)c1ccncc1)C1=C(O)CC(C)(C)CC1=O to CC(=O)C1C(c2ccc(Br)cc2)c2c(noc2C)CC1(C)O (centres unmarked), the “hERG current change (%, negative = inhibition) at 10uM” value falls from 33.2% to -0.615%.

Going from Cc1ccc(S(=O)(=O)/C(C#N)=C/c2c(N3CCN(C)CC3)nc3c(C)cccn3c2=O)cc1 to N#Cc1ccc(CN2CCN(C(=O)CCNS(=O)(=O)c3ccc(F)c(Cl)c3)CC2)cc1, the “hERG current change (%, negative = inhibition) at 10uM” value rises from -67.5% to 3.19%.

Going from COc1ccc(NC(=O)CN(C)C(=O)c2ccc(NS(=O)(=O)c3ccc4[nH]c(=O)[nH]c4c3)cc2)cc1 to CCNC(=O)COC(=O)c1ccc(NS(=O)(=O)c2ccc3c(c2)OCCO3)cc1, the “hERG current change (%, negative = inhibition) at 10uM” value falls from 16.1% to 14.9%.

First: CCOC(=O)Cn1nnnc1CN1CCN(c2ccc(OC)cc2)CC1
Second: CCOC(=O)C1(Cc2ccccc2)CCN(Cc2ccon2)CC1
The “hERG current change (%, negative = inhibition) at 10uM” value of the first is lower: -16.7% for the first, 0.71% for the second.

Compared with Nc1nc(COC(=O)C2CCN(C(=O)c3ccc(Cl)cc3)CC2)nc(Nc2ccccc2)n1, CC(=O)c1cccc(NC(=O)N2CCCC(C(=O)c3cc(F)ccc3F)C2)c1 (centres unmarked) is higher in “hERG current change (%, negative = inhibition) at 10uM” value: -67.8% for the first, -1.41% for the second.

First: COC1(NS(=O)(=O)c2ccc(Br)cc2)C(C)=CC(=O)C=C1C
Second: COc1ccc(Br)cc1S(=O)(=O)N1CCCC1
The “hERG current change (%, negative = inhibition) at 10uM” value of the first is higher: 32.3% for the first, -8.85% for the second.

Compared with CCn1c2ccccc2c2nnc(SCC(=O)NCc3cccs3)nc21, O=C(Cn1c(=O)oc2ccccc21)Nc1nc(-c2ccc(Br)cc2)cs1 is higher in “hERG current change (%, negative = inhibition) at 10uM” value: -11.4% for the first, -5.92% for the second.

Going from Cc1cccc(N(C(=O)Cc2cccs2)C(C(=O)NC2CCCC2)c2ccncc2)c1 (centres unmarked) to CC(=O)NC(Cc1ccccc1)c1ccc2c(c1)OCCCO2 (centres unmarked), the “hERG current change (%, negative = inhibition) at 10uM” value falls from 8.83% to 5.44%.

First: NC1=NC(=O)/C(=C\c2ccc(-c3ccc(Cl)cc3)o2)S1
Second: N#CC1=C(N)Oc2cc3c(cc2C1c1ccc(Cl)cc1)OCO3 (centres unmarked)
The “hERG current change (%, negative = inhibition) at 10uM” value of the first is lower: 9.15% for the first, 9.53% for the second.

Compared with [O-][N+]12CC[N+]([O-])(CC1)c1ccccc12, O=C1C2=C(SCCS2)C(=O)N1c1ccccc1 is higher in “hERG current change (%, negative = inhibition) at 10uM” value: 4.48% for the first, 19.3% for the second.

First: Cc1cc(C)cc(N(CC(=O)NC(C)(C)C)C(=O)CCC(=O)Nc2nccs2)c1
Second: O=C1OC2(CCCCC2)OC(=O)C1=CNc1nccs1
The “hERG current change (%, negative = inhibition) at 10uM” value of the first is lower: -3.95% for the first, 3.3% for the second.

Going from Cc1ccc([N+](=O)[O-])cc1N to O=C(Cn1cc([N+](=O)[O-])cn1)Nc1ccn(Cc2c(F)c(F)c(F)c(F)c2F)n1, the “hERG current change (%, negative = inhibition) at 10uM” value falls from 37.4% to -35.7%.

First: CC(C(=O)N1CCN(C(=O)c2ccco2)CC1)n1sc2ccccc2c1=O (centres unmarked)
Second: Cc1ccc(C)c2[nH]c(=O)c(CN(Cc3ccco3)C(=S)NCC3CCCO3)cc12 (centres unmarked)
The “hERG current change (%, negative = inhibition) at 10uM” value of the first is lower: -25.1% for the first, -16.5% for the second.

Going from CCc1ccc(/C=N\NC(=O)c2ccc(Br)o2)s1 to CCCNC(=O)/C(=C/c1cn(S(=O)(=O)N(C)C)c2ccccc12)NC(=O)c1ccc(OC)cc1, the “hERG current change (%, negative = inhibition) at 10uM” value falls from -9.41% to -17.9%.

Going from COC(=O)c1ccc(OCCCCN2CC(C)OC(C)C2)cc1.O=C(O)C(=O)O (centres unmarked) to Cc1ccc(-n2c3c(c(=O)[nH]c2=O)C(C(F)(F)F)(C(F)(F)F)NC(=O)N3)cc1, the “hERG current change (%, negative = inhibition) at 10uM” value rises from -20% to 22.2%.
